In all, about 110,000 compounds went through this assay and about 40 (0.04%) were called active. Inconclusive means that the source gave no clear call. Such entries were picked first, then a sample of the others. Calls follow the shape of the dose curve; as a rule, active = well fitted curve in the direction sought with a large enough effect in the signal ratio (not every such curve was filed as active); inconclusive = small, poorly fitted or top-dose-only effect, or a change in a side signal; inactive = flat fitted curve, though single readings scatter; the % refers to the signal ratio. Potencies of inconclusive entries are doubtful fits and often do not repeat.
Assay: IkB Signaling
Conditions: ABC-DLBCL IkBa-CBG/CBR dual luciferase ratio (green luciferase fused to IkBa over red control in OCI-Ly3 lymphoma cells), 4 h; IkBa stabilization activation: at 57.1 µM (top of the series), scaled: untreated 0%, proteasome inhibitor 100% unless noted
How it was run: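 Curves were fitted separately to fusion (green), unfused (red) and ratio luminescence, then classed by r2, magnitude and activity. Cells: OCI-Ly3, 4 h compound plus doxycycline at 37C; 10 uM MG-132 defined full response.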
Potency is read from the fitted curve at half-maximal effect.

Structure (SMILES) | IkBa stabilization activation | Potency
CCOc1ccccc1NC(=O)C1CCC(CNS(=O)(=O)c2ccc3c(c2)CCCC(=O)N3)CC1 (stereo unspecified) | inconclusive: 3.23% [signal inhibitor] | 
Cn1c(C(=O)NCCN2CCc3ccccc3C2)cc2c(=O)n(C)c3ccccc3c21 |  | inconclusive: 31.6 µM [rising, single point]
c1ccc(CN2COc3c(ccc4c5c(ccc34)CN(Cc3ccccc3)CO5)C2)cc1 | inactive: 0.216% [at 11.4 µM, scaled: untreated 0%, proteasome inhibitor 100%] | 
COC(=O)c1ccccc1NC(=O)C1=CC(c2ccc3c(c2)OCO3)=NS(=O)(=O)N1C | inconclusive: 5.83% [signal inhibitor] | 
CCc1cccc(C)c1Nc1c(-c2ccc(SC)cc2)nc2sccn12 | inactive | 
CCOc1ccc(CCNC(=O)c2cccc(Nc3nc4ccccc4nc3-n3nc(C)cc3C)c2)cc1OCC | inconclusive: 4.6% [signal inhibitor] | 
Cc1ccc(-n2nc3c(N4CCC(C(=O)NC5CCC(C)CC5)CC4)nnc(C)c3c2C)cc1 (stereo unspecified) | inconclusive: -0.43% [signal inhibitor] | 
CCn1c(COc2ccccc2C)nnc1SCC(=O)N1CCC(C)CC1 | inactive | 
CC1=C(C(N)=O)C(c2cccc(O)c2)n2ncnc2N1 (stereo unspecified) | inconclusive: -1.38% [signal inhibitor] | 
Cc1ccc2sc(N(Cc3cccnc3)C(=O)Cc3ccccc3)nc2c1C | inconclusive: 2.55% [signal inhibitor] | 
CC(=O)c1ccccc1OCC(O)CN1CCN(C(c2ccccc2)c2ccccc2)CC1 (stereo unspecified) | inconclusive: 8.39% [signal inhibitor] | 
Cc1ccc(C(=O)c2cn(Cc3ccccc3F)c3cc4c(cc3c2=O)OCCO4)cc1 | inconclusive: -0.431% [signal inhibitor] | 
O=C(c1cc(-c2ccccc2O)on1)N1CCc2ccccc2C1 |  | inconclusive: 25.1 µM [rising, partial curve]
Cc1nc2ccn(Cc3cccs3)c(=O)c2cc1C(=O)NCc1ccc(Br)cc1 | inactive | 
O=C(COc1ccc(Cl)cc1)N(Cc1ccco1)Cc1ccco1 | inconclusive: 0.652% [signal inhibitor] | 
Cc1oc(-c2ccccc2F)nc1CS(=O)CC(=O)NCc1cccs1 (stereo unspecified) | inactive | 
COc1ccccc1CNC(=O)CCC(=O)N1CC(C)Sc2ccccc21 (stereo unspecified) | inconclusive: -0.547% [signal inhibitor] | 
Oc1ccccc1-c1nnc(SCCN2CCOCC2)n1Cc1ccccc1 | inconclusive: 7.07% [signal inhibitor] | 
Cc1cccc(N2CCN(C(=O)CN3C(=O)COc4ccc(S(=O)(=O)N5CCC(C)CC5)cc43)CC2)c1C | inconclusive: 3.74% [signal inhibitor] | 
O=S(=O)(Nc1cccc(C(F)(F)F)c1)c1ccc(NS(=O)(=O)c2ccc3c(c2)OCCO3)cc1 | inconclusive: 1.96% [signal inhibitor] | 
COc1ccc(C(=O)Nc2cccc(-c3cn4ccsc4n3)c2)c(OC)c1 | inconclusive: 3.14% [signal inhibitor] | 

Structure (SMILES) | IkBa stabilization activation | Potency
Cc1csc2nc(COC(=O)c3cccc(NC(=O)c4cccc(Cl)c4)c3)cc(=O)n12 | inconclusive: 16.2% [signal inhibitor] | 
CCc1nn(CC(=O)N2CCC(C)CC2)c(=O)c2cc3occc3n12 | inactive | 
CCOc1ccc(C2=NC(c3ccncc3)=Nc3ccc(C)cc3N2)cc1OCC | inconclusive: -1.22% [signal inhibitor] | 
COc1ccc(C2CC(=O)c3c([nH]c(C(=O)OCc4ccccc4)c3C)C2)cc1 (stereo unspecified) | inactive | 
Cc1ccc(OCCn2cc(C(=O)c3cccs3)c3ccccc32)cc1 | inconclusive: 1.34% [signal inhibitor] | 
COc1cccc(/C=C/c2onc(C)c2S(=O)(=O)N2CCC(C(=O)N3CCCCC3)CC2)c1 | inactive | 
COc1ccc(N(Cc2ccccc2)C(=O)c2nc(S(C)(=O)=O)ncc2Cl)cc1 | inconclusive: -3.15% [signal inhibitor] | 
Cc1cccc(N2CCN(C(=O)Cn3nc(C)c4sc5ccccc5c4c3=O)CC2)c1C | inconclusive: 1.8% [signal inhibitor] | 
COc1cccc(C(=O)Nc2ccc(-n3nncc3-c3ccccc3)cc2)c1OC | inconclusive: 0.267% [signal inhibitor] | 
COc1ccc(CNC(=O)Cn2c(=O)nc(-c3ccccc3)c3cc(Cl)ccc32)cc1OC | inconclusive: -2.04% [signal inhibitor] | 
CCn1c2ccccc2c2nnc(N3CCN(c4cccc(Cl)c4)CC3)nc21 | inconclusive: -5.02% [signal inhibitor] | 
O=c1cnc2cnc(Nc3ccccc3)nc2n1Cc1cccs1 | inconclusive: -13.1% [signal inhibitor] [at 11.4 µM, scaled: untreated 0%, proteasome inhibitor 100%] | 
CCc1ccc(NC(=O)CCc2c(C)nc3nc(-c4cc(OC)cc(OC)c4)nn3c2C)cc1 | inconclusive: 3.07% [signal inhibitor] | 
CS(=O)(=O)N1CCN(C(=O)c2cc(-c3cccs3)nc3ccccc23)CC1 | inactive | 
Cc1ccc(N2CCn3c2nc2c3c(=O)n(C/C=C/c3ccccc3)c(=O)n2C)cc1C | inconclusive: 1.96% [signal inhibitor] | 
COc1ccc(-c2noc(CCCC(=O)Nc3cccc(Cl)c3C)n2)cc1 | inconclusive: -0.586% [signal inhibitor] | 
Cc1ccc(CN2CCSc3ccc(C(=O)NCc4ccc(OC(C)C)cc4)cc32)cc1 | inconclusive: -0.982% [signal inhibitor] | 
CC(=O)Nc1ccc2c(c1)/C(=C/c1ccc([N+](C)(C)C)cc1)c1ccccc1-2 | inactive: 0.0699% [at 11.4 µM, scaled: untreated 0%, proteasome inhibitor 100%] | 
O=C(Cn1c(=O)n(-c2ccc(F)cc2)c(=O)c2sc3ccccc3c21)NC1CCCC1 | inconclusive: 8.64% [signal inhibitor] | 
COc1ccc(-n2nc3ccc(NC(=O)c4c(OC)cccc4OC)cc3n2)cc1 | inactive | 

Reference: PubChem BioAssay AID445 (National Center for Advancing Translational Sciences (NCATS), 2006)
